Data reported in ChEMBL document CHEMBL4888484, “Replenishing the malaria drug discovery pipeline: Screening and hit evaluation of the MMV Hit Generation Library 1 (HGL1) against asexual blood stage Plasmodium falciparum ,using a nano luciferase reporter read-out” (2022).
Where “and” joins values, the source holds several entries; their conditions need not be identical. Equal values may be shown once. Out of some 150,000 compounds screened, about 540 (0.36%) showed an effect of 50% or more. The list shows a part of the results.

Tested on: Plasmodium falciparum
Experiment: Primary screen in NF54 nanoGlo assay, in single point, at 2uM, 72h; a lower Z score goes with more inhibition
Assay type: functional, Erythrocyte
Conditions: timepoint 72 hour

Cc1ccc(-c2nc(CC(=O)N3CCN(C)C[C@@H]3C)cs2)o1
% Inhibition: -5% | Z score: 0.62

CCCCS(CCCC)=C1C(=O)NC(=O)N(c2ccccc2F)C1=O
% Inhibition: -5% | Z score: 0.75

c1c[nH]c(-c2cn(CCc3c[nH]cn3)nn2)n1
% Inhibition: 2% | Z score: -0.37

Cc1ccc(Br)c(S(=O)(=O)NCCc2nc(=O)o[nH]2)c1
% Inhibition: -42% | Z score: 4.91

CC(C)C(=O)N1CCc2cc(-c3ccc(C(=O)N4CCC5(CC4)OCCO5)cc3)ccc21
% Inhibition: -5% | Z score: 0.94

COCCn1nnnc1[C@]1(N2CCCC2)CCN(C(=O)Cc2cccc(F)c2)C1
% Inhibition: -7% | Z score: 0.8

CCc1ocnc1C(=O)N1C[C@@H](c2cccc(O)c2)[C@@H]2[C@H]1C1CCN2CC1
% Inhibition: 2% | Z score: -0.32

CCc1nnc(CN2CC3(CC3)C2)s1
% Inhibition: -2% | Z score: 0.18

Clc1cncc(CN2CC[C@@H]3CC[C@@]32c2cccnc2)c1
% Inhibition: -6% | Z score: 0.96

CC(Cc1ccccn1)NCC(c1ccco1)N1CCCC1 (stereo unspecified)
% Inhibition: -5% | Z score: 0.65

O=c1cccc2n1CC1CC2CN(c2nc(N3CCOCC3)nc(N3CCOCC3)n2)C1 (stereo unspecified)
% Inhibition: -10% | Z score: 1.73

C[C@H]1COC2(CCN(C(=O)c3cc4c(cc3O)CCCC4)CC2)O1
% Inhibition: 32% | Z score: -3.65

CN1CCN(c2nccc(C(F)(F)F)n2)C[C@]12CCNC(=O)CC2
% Inhibition: -25% | Z score: 2.27

CCn1cc(Cl)cc1C(=O)N(C)Cc1n[nH]c(=O)o1
% Inhibition: 8% | Z score: -1.47

Cc1ccncc1C(=O)N1C[C@@H](c2cc(F)cc(F)c2)[C@@H]2[C@H]1C1CCN2CC1
% Inhibition: 3% | Z score: -0.58

CCCc1cnc(C)nc1N1CCC2(CC1)C(=O)NCCN2C
% Inhibition: 0% | Z score: 0.06

Fc1ccc([C@H]2NCc3cc4c(cc3-n3cccc32)OCO4)cc1
% Inhibition: -11% | Z score: 2.19

Cc1cccn2c(CC(=O)N3C[C@H]4CC[C@@H](C3)N(CC3CC3)C4)cnc12
% Inhibition: 0% | Z score: -0.08

CCC(=O)Nc1ccc(N(C)C2CCN(C)CC2)c(CN(C(=O)Nc2cccc(F)c2)C2CCCCC2)c1
% Inhibition: -7% | Z score: 1.35

CC12CCN(Cc3ncc[nH]3)CC1C2(F)F (stereo unspecified)
% Inhibition: 32% | Z score: -2.71

Cc1ncn(CC2CCN(S(=O)(=O)c3ccc4oc(=O)[nH]c4c3)CC2)c(=O)c1C
% Inhibition: -14% | Z score: 2.06

O=C(C1CCOCC1)N1CCCC[C@@H]1CCS(=O)(=O)F
% Inhibition: 1% | Z score: -0.14

N#Cc1c(N)nc2c(c1-c1cc3ccccc3o1)[C@@H]1CC[C@H](C2)N1
% Inhibition: -8% | Z score: 0.97

O=C(c1ccc2c(c1)OCO2)N1CCC2(CC1)OCCO2
% Inhibition: -14% | Z score: 1.92

Cc1cc(-c2ccc(S(=O)(=O)N3CCC(C(=O)N4CCC5(CC4)OCCO5)CC3)o2)[nH]n1
% Inhibition: -17% | Z score: 2.78

CN1CCCN(C(=O)Cc2ccsc2)CC1
% Inhibition: -6% | Z score: 0.72

Cc1ccc(Cc2nc(C3CN4CCCCC4CO3)no2)cn1 (stereo unspecified)
% Inhibition: 1% | Z score: -0.19

CC(C)(C)CC(C)(C)NCc1cccnc1
% Inhibition (2 µM): 1%

Cc1ccc(-n2c(N3CCCCC3)nc3ccccc3c2=O)cc1
% Inhibition: -1% | Z score: 0.22

Cc1cc(C(=O)NC2CC(C)n3ccnc32)nn1C(C)C (stereo unspecified)
% Inhibition: 62% | Z score: -7.62

COc1ccccc1Cn1cc(C(=O)NCCC(C)C)c(=O)c(C(=O)N2CCCCCC2)c1
% Inhibition: -7% | Z score: 0.91

Cc1nc(-c2cc(S(=O)(=O)N3CCC(C(=O)N4CCC5(CC4)OCCO5)CC3)c(C)s2)no1
% Inhibition: -18% | Z score: 2.91

CO[C@H]1C[C@H]2CC[C@@H](C1)N2Cc1ccsc1
% Inhibition: -8% | Z score: 1.63

CCC1CN2CCCC2CN1C(=O)c1cc(C2CC2)on1 (stereo unspecified)
% Inhibition: -12% | Z score: 1.71

CC(=O)N(C)CC(=O)N[C@@H](C)Cc1ccccc1Br
% Inhibition: 1% | Z score: -0.12

Cc1ccc(S(=O)(=O)Nc2ccc(S(=O)(=O)N[C@H]3CN4CCC3CC4)cc2)cc1C
% Inhibition: 3% | Z score: -0.32

OCC1C2CCC(C2)N1Cc1ccccc1 (stereo unspecified)
% Inhibition: 0% | Z score: -0.08

CCOc1ccccc1NC(=O)N1[C@@H]2CC[C@H]1Cc1nc(CC)[nH]c(=O)c1C2
% Inhibition: -16% | Z score: 2.31

O=C(c1nn(Cc2ccccc2)c2nccc(-c3cccs3)c12)N1CCC(Cc2ccccc2)CC1
% Inhibition: -13% | Z score: 1.66

C[C@@H](Cc1ccsc1)NCCc1cn2ccccc2n1
% Inhibition: -9% | Z score: 0.85

CC1(C)C2CC=C(CN3CCN(c4ccccn4)CC3)C1C2 (stereo unspecified)
% Inhibition: 7% | Z score: -1.06

CC(C)Cn1ccc(C(=O)NC2CC(C(=O)O)c3ccccc32)n1 (stereo unspecified)
% Inhibition: 9% | Z score: -1.19

Cc1ccc2oc(=O)n(Cc3ccc(OCCC(C)C)cc3)c2c1
% Inhibition: -20% | Z score: 3.81

CCCCS(=O)(=O)NCC#CCN1CCOCC1
% Inhibition: -6% | Z score: 0.64

CCCCOc1ncccc1CNC(=O)C1CN2CCCC2CO1 (stereo unspecified)
% Inhibition: -1% | Z score: 0.09

CCN(CC)[C@@H](CN)c1ccc(C)cc1
% Inhibition: 9% | Z score: -1.16

CNc1nc(NC[C@@H]2CCCN3CCCC[C@H]23)ncc1F
% Inhibition: 6% | Z score: -1.21

Cc1ccc2nsnc2c1N1CC1=O
% Inhibition: -7% | Z score: 0.84

c1cncc(CN2C[C@H]3CC[C@@H](C2)N(Cc2ncc[nH]2)C3)c1
% Inhibition: 8% | Z score: -1.13

O[C@@H](CNCCc1c[nH]c2ccccc12)c1ccccc1
% Inhibition: -19% | Z score: 1.6

O=c1ccc(-c2cncnc2)c2n1C[C@H]1C[C@@H]2CN(S(=O)(=O)c2ccccc2)C1
% Inhibition: -11% | Z score: 1.78

C[C@@H](CNC1CCCC1)c1ccccc1
% Inhibition (2 µM): 11% and 3%

Cc1cc(=O)c(OCC(=O)N2CCN(Cc3ccc4c(c3)OCO4)CC2)cn1C
% Inhibition: -10% | Z score: 1.11

CC(C)N1CC2(CN(C(=O)c3cccnc3)C[C@@H]3C[C@@H](O)CN32)C1
% Inhibition: -8% | Z score: 1.26

COc1cc(N2C[C@@H](c3ccccc3OC)[C@@H]3[C@H]2C2CCN3CC2)ncn1
% Inhibition: 4% | Z score: -0.57

CCC1CCC(NC[C@H]2CCCO2)CC1 (stereo partly specified)
% Inhibition: -4% | Z score: 0.67

CNCCc1cc(OC)c(OC)c2c1ccc1cc(OC)c(OC)cc12
% Inhibition: 32% | Z score: -0.73

Cn1ccc(-c2noc(C(C)(C)c3c[nH]cn3)n2)n1
% Inhibition: 5% | Z score: -0.85

O=C1CCc2cc(C(=O)N3CCC4(CC3)OCCO4)ccc2N1
% Inhibition: -1% | Z score: 0.17

CCN(CCN1CCOCC1)S(=O)(=O)c1ccc2oc(=O)[nH]c2c1
% Inhibition: -5% | Z score: 0.68

Cc1cnccc1CCN[C@@H](C)Cc1ccc(O)cc1
% Inhibition: -1% | Z score: 0.08

O=C(c1cccnn1)N1C[C@H](c2ccc3c(c2)OCO3)[C@@H]2[C@H]1C1CCN2CC1
% Inhibition: -11% | Z score: 1.42

COCCOCCC(=O)N[C@@H](C)Cc1cccc(Cl)c1
% Inhibition: -15% | Z score: 2.19

CCCCS(CCCC)=C1C(=O)NC(=O)N(Cc2ccc(F)cc2)C1=O
% Inhibition: -2% | Z score: 0.21

COc1ccc(-c2c(C#N)c(N)nc3c2N2CCC3CC2)c(OC)c1C
% Inhibition: 9% | Z score: -1.29

Cc1ccc(-c2cn(CC(=O)Nc3cccc(C)c3C)c(=O)o2)cc1
% Inhibition: -16% | Z score: 1.64

Cc1cccnc1C(=O)N1C[C@H](c2cc(F)cc(F)c2)[C@@H]2[C@H]1C1CCN2CC1
% Inhibition: 16% | Z score: -1.53

COc1ccc2c(c1)C[C@]1(CN2C)C(=O)N(c2ccc(C)cc2)C(=O)N=C1O
% Inhibition: 9% | Z score: -1.15

Cc1cc(C)cc(C[C@H](C)NC(=O)CN2CCOC2=O)c1
% Inhibition: -20% | Z score: 2.81

COc1cccc(CC(=O)N2CCCCC[C@@H]2CN2CCCC2)c1
% Inhibition: -1% | Z score: 0.16

CN1CCN2CCN(C(=O)c3ccncc3F)C[C@H]2C1=O
% Inhibition: -15% | Z score: 2.98

Cc1ccc(CN(Cc2ccncc2)C(=O)[C@H](C)N2CCCC2=O)s1
% Inhibition: 0% | Z score: -0.01

O=C(COc1ccc(Br)cc1F)N1CCC2(CC1)OCCO2
% Inhibition: -11% | Z score: 1.17

CC(C)c1nc(CN2C[C@@H]3NCCO[C@H]3C2)co1
% Inhibition: -9% | Z score: 1.09

CCn1nc(C)c(CN2CCC[C@H](C(=O)c3ccccn3)C2)c1C
% Inhibition: 1% | Z score: -0.19

CCN1CCN(c2nc3ccccc3c(=O)[nH]2)CC1
% Inhibition: 0% | Z score: -0.01

C=CCNC(=O)Cn1c(-c2ncccn2)noc1=O
% Inhibition: 6% | Z score: -0.88

C[C@@H](Cc1ccc(Cl)cc1Cl)NC(=O)NCCCCn1cnnc1
% Inhibition: 3% | Z score: -0.5

Cc1ccc(N2C(=O)NC(=O)C3(Cc4ccccc4N4CCCC43)C2=O)cc1 (stereo unspecified)
% Inhibition: 8% | Z score: -1.04

Cc1ccc(-c2nnc(N3CCC(C(=O)N4CCC5(CC4)OCCO5)CC3)o2)cc1
% Inhibition: -9% | Z score: 1.39

CCOc1cccc2c1cc(C(=O)NCc1ccc(F)cc1)n2Cc1ccc(C(C)(C)C)cc1
% Inhibition: -13% | Z score: 1.47

CN(C)CCN1CCN(C(=O)Cc2ccn(-c3ccccc3)n2)CC1
% Inhibition: 8% | Z score: -1.04

Cc1ccc(C2(CNC(=O)Cc3ccc(S(=O)(=O)F)cc3)CCC2)cc1C
% Inhibition: 6% | Z score: -1.05

COc1ccc(OC)c(CC2(CN3CCc4cc(OC)c(OC)cc4[C@@H]3C)C(=O)N(C)C(=O)N(C)C2=O)c1
% Inhibition: -12% | Z score: 1.49
